Experimental findings from a collection of fitness landscapes (doi:10.1126/science.1257360) are described below.

The chains are these.
B1: PhoQ; a variant is named by its letters at X, in order, P23837 (parent)
chain: MKKLLRLFFPLSLRVRFLLATAAVVLVLSLAYGMVALIGYSVSFDKTTFRLLRGESNLFYTLAKWENNKLHVELPENIDKQSPTMTLIYDENGQLLWAQRDVPWLMKMIQPDWLKSNGFHEIEADVNDTSLLLSGDHSIQQQLQEVREDDDDAEMTHSVAVNVYPATSRMPKLTIVVVDTIPVELKSSYMVWSWFIYVLSANLLLVIPLLWVAAWWSLRPIEALAKEVRELEEHNRELLNPATTRELTSLVRNLNRLLKSERERYDKYRTTLTDLTHSLKTPLXXLQXXLRSLRSEKMSVSDAEPVMLEQISRISQQIGYYLHRASMRGGTLLSRELHPVAPLLDNLTSALNKVYQRKGVNISLDISPEISFVGEQNDFVEVMGNVLDNACKYCLEFVEISARQTDEHLYIVVEDDGPGIPLSKREVIFDRGQRVDTLRPGQGVGLAVAREITEQYEGKIVAGESMLGGARMEVIFGRQHSAPKDE

Some of the results follow.

Variants of B1 are the subject of this assay. Nature of the assay: enrichment ratio after two sorts for PhoP signalling (ratio (wild type AVST 3.29)); higher = more functional. The note with it: with PhoP (E. coli).
DFMG: the enrichment ratio was at most 0.25. Then PEHP, with at most 0.25; and LAEM, with at most 0.25. Then AGHN, with at most 0.25; and ALFG, with at most 0.25; and QAKY, with at most 0.25.

On to FFHL, for which the enrichment ratio is at most 0.25. Then IVQG, with at most 0.25; and YGFR, with at most 0.25; and MGFT, with 1.76. PHGN: the enrichment ratio is at most 0.25.

For FMTG, the enrichment ratio was at most 0.25. Then HRRN, with at most 0.25. Then INNL, with at most 0.25; and LVWL, with at most 0.25. Then HLRK, with at most 0.25. Consider TFED, for which the enrichment ratio was at most 0.25. For the variant QVFE, the enrichment ratio is at most 0.25. As for VGNQ, the figure is at most 0.25; as for ITDQ, at most 0.25; as for FIGM, at most 0.25. Take KSQW: the enrichment ratio is at most 0.25. As for AEYA, the figure is at most 0.25; as for HEPY, at most 0.25. As for SMYD, the figure is at most 0.25.

On to QKLW, for which the enrichment ratio is at most 0.25. As for AVAR, the figure is 9.7; as for WMPQ, at most 0.25; as for DGWS, at most 0.25.

Take DSKN: the enrichment ratio was at most 0.25. Regarding PAYP, the enrichment ratio was at most 0.25.

On to KYPI, for which the enrichment ratio is at most 0.25. Take AQLH: the enrichment ratio amounted to 13.8.

For YGNG, the enrichment ratio was at most 0.25. With WFQL, the enrichment ratio was at most 0.25. Turning to LLNW, the enrichment ratio is at most 0.25.

WCDF: the enrichment ratio was at most 0.25.

For ADTC, the enrichment ratio is at most 0.25. As for YSLD, the figure is at most 0.25.

Consider MGWR, for which the enrichment ratio is at most 0.25.

With PCGV, the enrichment ratio was at most 0.25. With MISF, the enrichment ratio was 3.65. As for TGRS, the figure is at most 0.25. Turning to ATGP, the enrichment ratio was at most 0.25.

In the case of TRMN, the enrichment ratio is at most 0.25.

Regarding RPNE, the enrichment ratio is at most 0.25. Consider FTSC, for which the enrichment ratio is at most 0.25.

With RNNP, the enrichment ratio was at most 0.25. On to KQLM, for which the enrichment ratio was at most 0.25.

In the case of HYLS, the enrichment ratio was at most 0.25. With NLTG, the enrichment ratio was at most 0.25. As for IQET, the figure is at most 0.25. Then SYCY, with at most 0.25; and NVLF, with at most 0.25; and DEVD, with at most 0.25. Take APLI: the enrichment ratio was determined as 0.336. Then ACQA, with at most 0.25; and HKSQ, with at most 0.25.

For VKWI, the enrichment ratio was at most 0.25. As for TRHM, the figure is at most 0.25; as for GHND, at most 0.25; as for GTFT, at most 0.25.

Take DIWG: the enrichment ratio was at most 0.25. Then RSGV, with at most 0.25; and LNEI, with at most 0.25. For the variant LTTV, the enrichment ratio is at most 0.25. As to AVQL, the enrichment ratio was at most 0.25.

In the case of YLKY, the enrichment ratio was at most 0.25. In the case of IMVE, the enrichment ratio is at most 0.25. Regarding PHDQ, the enrichment ratio was at most 0.25. As for PLQK, the figure is at most 0.25; as for NYVE, at most 0.25. Then ENRC, with at most 0.25.

With YNRA, the enrichment ratio is at most 0.25. As for QYCY, the figure is at most 0.25; as for RFTD, at most 0.25. Consider ANSH, for which the enrichment ratio was determined as 7.94. As for VPYV, the figure is at most 0.25. As for SCAE, the figure is 8.81. Then QCER, with at most 0.25; and WQIV, with at most 0.25. Turning to QMFV, the enrichment ratio was at most 0.25. FQWC: the enrichment ratio was at most 0.25. Consider RCEM, for which the enrichment ratio was at most 0.25. As for DYKV, the figure is at most 0.25; as for DYPH, at most 0.25; as for GQPE, at most 0.25. As for TVMS, the figure is 6.79; as for GQKY, at most 0.25; as for YNRT, at most 0.25. Regarding KPQS, the enrichment ratio was at most 0.25. Then WVTD, with at most 0.25. Turning to KTQH, the enrichment ratio was at most 0.25. As for GDFS, the figure is at most 0.25; as for HYDN, at most 0.25. As for LKDY, the figure is at most 0.25; as for MVVW, at most 0.25; as for TNAQ, 4.37. As for KRAM, the enrichment ratio was at most 0.25. As for IADG, the figure is at most 0.25; as for QGAP, at most 0.25; as for TVIV, at most 0.25. HAPS: the enrichment ratio is at most 0.25. Then MFIM, with at most 0.25; and GWFL, with at most 0.25.

IRIL: the enrichment ratio is at most 0.25. RTVQ: the enrichment ratio was at most 0.25. In the case of IVRP, the enrichment ratio was at most 0.25. As for DDCF, the figure is at most 0.25; as for PVHP, at most 0.25. As for IKGQ, the enrichment ratio is at most 0.25.

For HEMR, the enrichment ratio was at most 0.25. As for FTCH, the figure is at most 0.25; as for TVSN, 7; as for GHCY, at most 0.25.

Regarding NYKM, the enrichment ratio is at most 0.25.

As to WWPG, the enrichment ratio is at most 0.25. As for REVI, the figure is at most 0.25.

For RQTN, the enrichment ratio is at most 0.25. Turning to WFAK, the enrichment ratio was at most 0.25. As for WPPP, the enrichment ratio was at most 0.25. Consider MQNY, for which the enrichment ratio is at most 0.25.

For NMCK, the enrichment ratio was at most 0.25.

Regarding MQCA, the enrichment ratio was at most 0.25.

On to VRDH, for which the enrichment ratio is at most 0.25. Consider NTAG, for which the enrichment ratio was at most 0.25. On to LEED, for which the enrichment ratio is at most 0.25.

For LEDR, the enrichment ratio was 0.543.

As for HPCC, the enrichment ratio was at most 0.25.

On to QEIP, for which the enrichment ratio is at most 0.25.

Turning to MHVA, the enrichment ratio was at most 0.25. Then HQVH, with at most 0.25. Then NADD, with at most 0.25; and KEFY, with at most 0.25; and LYKQ, with at most 0.25. As for TMSL, the figure is 13.1.

In the case of RNVQ, the enrichment ratio is at most 0.25. Then WCIL, with at most 0.25.

For IADQ, the enrichment ratio was at most 0.25.

Turning to IFYP, the enrichment ratio is at most 0.25. With SDLQ, the enrichment ratio was determined as 4.07. Turning to TTSP, the enrichment ratio is at most 0.25.

For GAGP, the enrichment ratio was at most 0.25. Then ANSW, with at most 0.25. As for NMSC, the figure is at most 0.25; as for SCFS, at most 0.25. Then DWQK, with at most 0.25; and VQRW, with at most 0.25. Consider IRCV, for which the enrichment ratio is at most 0.25. As for YWQY, the figure is at most 0.25. As for PCWE, the figure is at most 0.25. Take LLNN: the enrichment ratio is at most 0.25. Regarding GDVA, the enrichment ratio was at most 0.25.
